Out of some 310,000 compounds screened, about 14,000 (4.5%) showed an effect of 50% or more. Effects have a minus sign here. This is one part of the list.
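Also: peak tail current of the secondary pulse compared with the same well before compound.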

The target in this assay is human ether-à-go-go-related gene (hERG) potassium channel (human, UniProt Q12809). Kind of assay: primary screen, population patch clamp on CHO cells stably expressing hERG.
Sequence of human ether-à-go-go-related gene (hERG) potassium channel (Q12809 whole entry, looked up): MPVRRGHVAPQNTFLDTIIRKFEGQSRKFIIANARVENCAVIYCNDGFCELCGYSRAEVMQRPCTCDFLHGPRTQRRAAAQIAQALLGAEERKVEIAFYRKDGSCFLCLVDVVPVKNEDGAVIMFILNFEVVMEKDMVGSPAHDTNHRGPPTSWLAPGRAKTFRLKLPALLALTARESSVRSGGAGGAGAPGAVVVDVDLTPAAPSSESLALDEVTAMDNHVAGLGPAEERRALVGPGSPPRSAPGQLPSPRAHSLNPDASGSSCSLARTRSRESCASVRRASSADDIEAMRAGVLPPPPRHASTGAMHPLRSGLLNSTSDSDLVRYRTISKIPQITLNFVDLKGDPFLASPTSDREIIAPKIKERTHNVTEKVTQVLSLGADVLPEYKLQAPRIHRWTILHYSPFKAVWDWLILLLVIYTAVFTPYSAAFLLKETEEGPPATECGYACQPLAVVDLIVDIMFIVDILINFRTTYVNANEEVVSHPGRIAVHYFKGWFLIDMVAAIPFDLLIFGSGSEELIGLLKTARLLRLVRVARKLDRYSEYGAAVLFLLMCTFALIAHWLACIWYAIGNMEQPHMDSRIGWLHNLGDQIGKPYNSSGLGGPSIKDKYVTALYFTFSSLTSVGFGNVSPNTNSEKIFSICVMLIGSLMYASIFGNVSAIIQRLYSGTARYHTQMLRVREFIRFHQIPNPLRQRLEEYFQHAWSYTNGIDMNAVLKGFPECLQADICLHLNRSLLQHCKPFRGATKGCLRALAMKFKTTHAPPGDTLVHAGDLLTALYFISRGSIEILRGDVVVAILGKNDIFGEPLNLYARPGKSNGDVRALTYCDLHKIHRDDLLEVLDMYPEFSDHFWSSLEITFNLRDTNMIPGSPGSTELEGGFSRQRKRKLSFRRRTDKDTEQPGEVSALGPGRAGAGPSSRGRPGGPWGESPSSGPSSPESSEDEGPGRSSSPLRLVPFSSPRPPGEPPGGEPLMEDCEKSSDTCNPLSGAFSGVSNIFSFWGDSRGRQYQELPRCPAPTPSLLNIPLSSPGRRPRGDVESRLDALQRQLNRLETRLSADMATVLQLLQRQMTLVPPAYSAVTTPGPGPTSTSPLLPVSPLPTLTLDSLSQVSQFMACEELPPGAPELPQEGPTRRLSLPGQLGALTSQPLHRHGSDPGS
With `c1cn(C23CC4CC(CC(C4)C2)C3)cn1`, the “hERG current change (%, negative = inhibition) at 10uM” value was -13.1%.

As for `Cc1ccc(C(=O)NC2(C(F)(F)F)N=C3SCCN3C2=O)cc1` (centres unmarked), the “hERG current change (%, negative = inhibition) at 10uM” value was found to be 20.5%.

For the compound `COc1ccc(C(C(=O)NC(C)(C)C)N(C(=O)CCC(=O)Nc2cc(C)on2)c2ccc3c(c2)OCCO3)cc1` (centres unmarked), the “hERG current change (%, negative = inhibition) at 10uM” value is listed as 13.4%.

Consider `CCCOc1ccc(N2CC(C(=O)NC3=NCCS3)CC2=O)cc1` (centres unmarked), for which the “hERG current change (%, negative = inhibition) at 10uM” value is listed as -49.7%.

On to `c1ccc(OCCCc2nc(-c3ccncc3)no2)cc1`, for which the “hERG current change (%, negative = inhibition) at 10uM” value is on record as -1.66%.

Take `CC(=O)c1ccc(NC(=O)C(NC(=O)c2ccccc2)=C(C)C)cc1`: the “hERG current change (%, negative = inhibition) at 10uM” value is given as 12.8%.

In the case of `CCn1c(SCC(=O)N/N=C/C=C\c2ccccc2[N+](=O)[O-])nc2ccccc21`, the “hERG current change (%, negative = inhibition) at 10uM” value is reported as -63.8%.

As to `O=C(N/N=C/c1cccnc1)c1ccc(NC(=O)c2ccc(Cl)cc2)cc1`, the “hERG current change (%, negative = inhibition) at 10uM” value was determined as 9.58%.

As for `N#C/C(=C\c1cccs1)c1nc2ccccc2[nH]1`, the “hERG current change (%, negative = inhibition) at 10uM” value is listed as 1.05%.

In the case of `CCOc1cccc(CN2CCC(CCC(=O)NC3CC3)CC2)c1O`, the “hERG current change (%, negative = inhibition) at 10uM” value was -70.3%.

With `COC(=O)C1=C(C)NC(=O)CC1c1cccc(OC)c1OC` (centres unmarked), the “hERG current change (%, negative = inhibition) at 10uM” value is -8.79%.

In the case of `Cn1cc(S(=O)(=O)c2ccccc2)n(C)c1=O`, the “hERG current change (%, negative = inhibition) at 10uM” value was determined as 12.8%.

`C/C(CC(=O)Nc1ccc(Cl)cc1Cl)=N\NC(N)=S`: the “hERG current change (%, negative = inhibition) at 10uM” value is recorded as -14.3%.

As for `COc1cccc(-c2ncc3ccccc3c2COC(=O)c2ccc(Br)cc2)c1`, the “hERG current change (%, negative = inhibition) at 10uM” value is given as 17.6%.

Consider `O=C(NCc1ccc(Cl)cc1)C1CCN(c2cnccn2)CC1`, for which the “hERG current change (%, negative = inhibition) at 10uM” value is -59.9%.

For `O=C1CCc2cc(S(=O)(=O)NCc3ccccc3Cl)ccc2N1`, the “hERG current change (%, negative = inhibition) at 10uM” value is given as -23.4%.

For `CC1(CC(=O)N/N=C/c2ccc(-c3ccc(Cl)cc3)o2)OCCO1`, the “hERG current change (%, negative = inhibition) at 10uM” value is recorded as 1.13%.

For `CCCNC(=O)c1oc2ccc3c(c2c1C)C=CC(C)(C)O3`, the “hERG current change (%, negative = inhibition) at 10uM” value is recorded as 0.704%.

`c1ccc(CCSc2nccn2-c2ccccc2)cc1`: the “hERG current change (%, negative = inhibition) at 10uM” value was -8.04%.

For the compound `CC(=O)Nc1ccc(OCC(O)Cn2cccn2)cc1` (centres unmarked), the “hERG current change (%, negative = inhibition) at 10uM” value is 17.3%.

Regarding `CC(=O)c1c(O)cc(=O)oc1-c1ccc(C)cc1`, the “hERG current change (%, negative = inhibition) at 10uM” value is 16.7%.

On to `O=[N+]([O-])c1cccc(/C=C/C=N/Nc2nc(N3CCCCC3)nc(N3CCCCC3)n2)c1`, for which the “hERG current change (%, negative = inhibition) at 10uM” value is reported as 9.47%.

For `Cc1cc2nc(SCCOC(=O)Nc3cccc(Cl)c3)nc(C)c2cc1C`, the “hERG current change (%, negative = inhibition) at 10uM” value is on record as 4.69%.

Regarding `Cc1ccc(C(=O)n2c(-c3ccccc3)cnc2SCC(=O)Nc2ccc(C)cc2C)cc1`, the “hERG current change (%, negative = inhibition) at 10uM” value was determined as 5.33%.

Regarding `CN(c1ccc(C(=O)NC2CCCCC2)cc1)S(=O)(=O)c1ccccc1`, the “hERG current change (%, negative = inhibition) at 10uM” value is on record as -4.03%.

Take `CC(C)c1ccc(NC(=O)N2CCN(S(=O)(=O)c3ccccc3)CC2)cc1`: the “hERG current change (%, negative = inhibition) at 10uM” value is given as -11.7%.

Consider `Cn1nnnc1SCC(=O)Nc1ccc(C(=O)N2CCN(Cc3ccccc3F)CC2)cc1`, for which the “hERG current change (%, negative = inhibition) at 10uM” value is on record as -2.12%.

Turning to `COc1ccc(C)cc1Nc1n[n+](C)c(-c2ccc(O)cc2O)s1.[Cl-]`, the “hERG current change (%, negative = inhibition) at 10uM” value is listed as 38.7%.

In the case of `Cc1cnc(C(=O)N2CCc3c([nH]c4ccccc34)C2c2ccc(F)cc2)cn1` (centres unmarked), the “hERG current change (%, negative = inhibition) at 10uM” value is -39.8%.

For `NS(=O)(=O)c1ccc(NC(=S)N2CCN(Cc3ccc(Cl)c(Cl)c3)CC2)cc1`, the “hERG current change (%, negative = inhibition) at 10uM” value was -0.0378%.

As to `C#CCOCCOCCOCCNc1nc(N2CCN(C(=O)[C@H]([C@@H](C)CC)n3cc([C@@H](N)Cc4ccc(O)cc4)nn3)CC2)nc(N2CCN(C(=O)[C@H](CCCCN)n3cc([C@@H](N)C(C)CC)nn3)CC2)n1.Cl` (some centres unmarked), the “hERG current change (%, negative = inhibition) at 10uM” value turned out to be 0.064%.

Consider `O=C(c1ccc(Cl)c([N+](=O)[O-])c1)N1CCN(C(=O)c2ccco2)CC1`, for which the “hERG current change (%, negative = inhibition) at 10uM” value is reported as -41.6%.

Take `CCn1cc(SCC(=O)N2CCOCC2)c2ccccc21`: the “hERG current change (%, negative = inhibition) at 10uM” value came out at 8.42%.

For the compound `CC(=O)Oc1ccc2c(C)cc(=O)oc2c1C(=O)c1ccccc1`, the “hERG current change (%, negative = inhibition) at 10uM” value came out at 15.7%.

Take `CCN(C(=S)Nc1cccc(C)c1)c1ccccc1`: the “hERG current change (%, negative = inhibition) at 10uM” value is reported as 13.2%.

Turning to `Cc1cc(-c2cc(-c3ccc(Cl)cc3)on2)nc(NC2CCCC2)n1`, the “hERG current change (%, negative = inhibition) at 10uM” value was -4.86%.

Regarding `COc1cc(/C=C(\NC(C)=O)C(=O)NC(C)(C)CC(C)(C)C)ccc1OC(C)=O`, the “hERG current change (%, negative = inhibition) at 10uM” value is -5.22%.

`COc1ccc(-c2[nH]ncc2/C=C(/C#N)C(=O)NC2CCCCC2)cc1`: the “hERG current change (%, negative = inhibition) at 10uM” value is 2.85%.

As to `COC(=O)CN1C(=O)[C@H]2[C@@H](/C=C/c3ccccc3)N3C(=O)CN(Cc4ccccc4)C(=O)[C@@]3(Cc3ccccc3)[C@H]2C1=O`, the “hERG current change (%, negative = inhibition) at 10uM” value is -10.8%.

With `O=C1CC2C(=O)NCCN2C(=NC(=O)c2ccc(Cl)cc2)N1` (centres unmarked), the “hERG current change (%, negative = inhibition) at 10uM” value is reported as -15.7%.

For the compound `Oc1csc(Cc2nc(-c3ccc(Br)cc3)cs2)n1`, the “hERG current change (%, negative = inhibition) at 10uM” value stood at 16.7%.

Take `CCN(C(=O)COC(=O)CCS(=O)(=O)c1ccc(C)cc1)C1CCS(=O)(=O)C1` (centres unmarked): the “hERG current change (%, negative = inhibition) at 10uM” value worked out at 12.9%.

Turning to `O=C(O)Cc1ccc(S(=O)(=O)Nc2ccccc2C(=O)O)cc1`, the “hERG current change (%, negative = inhibition) at 10uM” value is 1.27%.

On to `CCC/C(O)=C1\C(=O)CC(C)(C)CC1=Nc1ccccc1OC`, for which the “hERG current change (%, negative = inhibition) at 10uM” value is listed as -13.4%.

On to `CN1CC[C@]23c4ccccc4N[C@H]1[C@]21CCN(C)[C@H]3Nc2ccccc21`, for which the “hERG current change (%, negative = inhibition) at 10uM” value amounted to 12.3%.

As for `Nc1cc2nc3ccccc3nc2cc1N`, the “hERG current change (%, negative = inhibition) at 10uM” value is listed as 18.5%.

Regarding `CC(=O)C1=NN(c2ccccc2)C2(S1)S/C(=C\c1ccccc1)C(=O)N2c1ccccc1` (centres unmarked), the “hERG current change (%, negative = inhibition) at 10uM” value was 5.09%.

For the compound `CCc1nc(CNC(=O)c2cc(OC)c(OC)c(OC)c2)no1`, the “hERG current change (%, negative = inhibition) at 10uM” value turned out to be 4.02%.

Take `O=C(O)c1cc(/C=C/C(=O)c2cc(F)ccc2O)c2c(c1)COCO2`: the “hERG current change (%, negative = inhibition) at 10uM” value is -1.67%.

For the compound `CN(Cc1nc(-c2cccnc2)no1)S(=O)(=O)c1ccc2ccccc2c1`, the “hERG current change (%, negative = inhibition) at 10uM” value is given as -36.4%.

For the compound `CCCCN(CCCC)CP(=O)(c1ccccc1)c1ccccc1`, the “hERG current change (%, negative = inhibition) at 10uM” value was -30.5%.

Turning to `O=C(CC(C(=O)O)c1ccc(Cl)cc1Cl)c1ccc(Cl)cc1` (centres unmarked), the “hERG current change (%, negative = inhibition) at 10uM” value came out at 11.4%.

With `O=C(NCc1ccccn1)c1cccc(NS(=O)(=O)c2ccccc2)c1`, the “hERG current change (%, negative = inhibition) at 10uM” value worked out at 6.73%.

(Values after publication PMC4336329 (PLoS ONE, 2015).)
